The campaign covered roughly 310,000 compounds. About 14,000 (4.5%) showed an effect of 50% or more. Effects have a minus sign here. The list shows a part of the results.

From paper PMC4336329 (PLoS ONE, 2015) come the findings set out here.
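Further: peak tail current of the secondary pulse compared with the same well before compound.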

Chain of human ether-à-go-go-related gene (hERG) potassium channel (Q12809 whole entry, looked up): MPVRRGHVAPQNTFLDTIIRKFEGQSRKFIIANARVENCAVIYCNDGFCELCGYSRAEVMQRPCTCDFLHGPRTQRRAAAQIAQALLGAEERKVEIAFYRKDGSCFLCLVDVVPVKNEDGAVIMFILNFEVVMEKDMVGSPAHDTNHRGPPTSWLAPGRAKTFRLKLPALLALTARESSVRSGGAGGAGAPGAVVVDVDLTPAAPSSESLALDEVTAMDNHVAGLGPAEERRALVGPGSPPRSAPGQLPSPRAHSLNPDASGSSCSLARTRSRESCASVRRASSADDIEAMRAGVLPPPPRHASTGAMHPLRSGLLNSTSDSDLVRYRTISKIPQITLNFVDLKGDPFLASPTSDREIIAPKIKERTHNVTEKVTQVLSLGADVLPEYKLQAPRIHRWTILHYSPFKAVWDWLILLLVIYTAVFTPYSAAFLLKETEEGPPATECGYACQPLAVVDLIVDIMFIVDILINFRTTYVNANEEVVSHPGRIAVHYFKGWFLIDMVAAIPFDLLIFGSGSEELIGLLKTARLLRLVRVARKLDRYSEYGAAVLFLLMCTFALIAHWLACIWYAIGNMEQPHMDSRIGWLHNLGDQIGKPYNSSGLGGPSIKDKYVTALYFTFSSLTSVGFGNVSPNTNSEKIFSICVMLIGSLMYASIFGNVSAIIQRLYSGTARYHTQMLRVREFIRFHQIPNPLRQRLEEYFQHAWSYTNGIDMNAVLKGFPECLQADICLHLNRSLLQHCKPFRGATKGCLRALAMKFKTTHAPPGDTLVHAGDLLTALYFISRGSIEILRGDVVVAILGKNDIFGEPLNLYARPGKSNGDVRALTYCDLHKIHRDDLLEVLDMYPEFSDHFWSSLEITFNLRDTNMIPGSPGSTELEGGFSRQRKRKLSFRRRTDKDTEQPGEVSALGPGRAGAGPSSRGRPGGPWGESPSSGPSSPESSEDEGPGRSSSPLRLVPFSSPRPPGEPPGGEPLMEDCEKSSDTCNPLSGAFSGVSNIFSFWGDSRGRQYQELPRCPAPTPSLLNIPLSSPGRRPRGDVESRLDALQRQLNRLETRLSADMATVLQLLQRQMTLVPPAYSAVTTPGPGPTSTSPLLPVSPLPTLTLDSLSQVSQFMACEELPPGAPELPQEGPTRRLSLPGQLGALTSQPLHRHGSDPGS

The assay has as its target human ether-à-go-go-related gene (hERG) potassium channel (human, UniProt Q12809). The experiment in a line: primary screen, population patch clamp on CHO cells stably expressing hERG.
As to `CCCN1C2CCCC1CC(NC(=O)c1ccccc1Br)C2` (centres unmarked), the “hERG current change (%, negative = inhibition) at 10uM” value is -27%.

With `NC(=O)C1CC(=O)N(c2ccc(OCc3ccccc3Cl)cc2)C1` (centres unmarked), the “hERG current change (%, negative = inhibition) at 10uM” value is on record as -6.43%.

For `COc1ccc(C2CC(c3ccc(Br)cc3)=NN2C(=O)c2cccnc2)cc1` (centres unmarked), the “hERG current change (%, negative = inhibition) at 10uM” value is given as -30.6%.

With `COc1ccc2c(c1)c1nc3n(c(=O)c1n2CC(=O)Nc1ccccc1)CCCS3`, the “hERG current change (%, negative = inhibition) at 10uM” value amounted to 31.5%.

Turning to `Cc1cccc(C(=O)NC2=NCCS2)c1`, the “hERG current change (%, negative = inhibition) at 10uM” value was found to be 8.03%.

Consider `Cc1ccc(NC(=O)CCNS(=O)(=O)c2ccc3c(c2)CCC(=O)N3)c(Br)c1`, for which the “hERG current change (%, negative = inhibition) at 10uM” value is listed as -20.5%.

For the molecule `Cc1ccc(-c2nn(-c3ccccc3)cc2/C=C/C(=O)Nc2cccc(S(N)(=O)=O)c2)cc1`, the “hERG current change (%, negative = inhibition) at 10uM” value was determined as 9.23%.

Consider `COc1ccc(OC)c(Nc2ncnc3ccccc23)c1.Cl`, for which the “hERG current change (%, negative = inhibition) at 10uM” value is -18.6%.

Turning to `COc1ccc(NC(=O)CCC(=O)OCc2ccc(C(=O)Oc3ccc(Cl)cc3)cc2)cc1`, the “hERG current change (%, negative = inhibition) at 10uM” value stood at 0.558%.

Take `O=C(CN1C(=O)/C(=C\c2cccc(Br)c2)Oc2ccccc21)NCCCN1CCOCC1`: the “hERG current change (%, negative = inhibition) at 10uM” value is -15.6%.

Turning to `CCN(CC)S(=O)(=O)c1ccc(OC)c(NC(=S)Nc2cc(C)ccc2C)c1`, the “hERG current change (%, negative = inhibition) at 10uM” value is reported as -6.34%.

Regarding `O=S(=O)(Nc1ccc(S(=O)(=O)Nc2nccs2)cc1)c1ccc2c(c1)OCCO2`, the “hERG current change (%, negative = inhibition) at 10uM” value is -19.2%.

Turning to `O=C(CSc1nnc(CNC(=O)c2c(F)cccc2Cl)o1)c1ccccc1`, the “hERG current change (%, negative = inhibition) at 10uM” value is -21.5%.

`S=C(Nc1ccc(Cl)c(Cl)c1)N1CCN(c2ccccn2)CC1`: the “hERG current change (%, negative = inhibition) at 10uM” value was found to be 13.8%.

Turning to `Cc1cc(-c2ccco2)n2c(nc3ccccc32)c1C#N`, the “hERG current change (%, negative = inhibition) at 10uM” value is given as -25.9%.

Consider `COc1ccccc1-c1nnc(N)s1`, for which the “hERG current change (%, negative = inhibition) at 10uM” value is 12%.

Consider `CNC(=S)NNC(=O)c1cccn(Cc2ccc(Cl)c(Cl)c2)c1=O`, for which the “hERG current change (%, negative = inhibition) at 10uM” value was -18.6%.

Consider `CCOC(=O)C1CCCN(C(=O)c2cccc(N3C(=O)c4ccccc4C3=O)c2)C1` (centres unmarked), for which the “hERG current change (%, negative = inhibition) at 10uM” value is -18.4%.

For `CN(C)CCN=Cc1c(O)n(-c2cccc3ccccc23)c(=O)[nH]c1=O`, the “hERG current change (%, negative = inhibition) at 10uM” value was found to be 10.4%.

In the case of `CC(C)C(C(=O)NCC1CCCO1)N(Cc1ccccc1)C(=O)CNS(=O)(=O)c1ccccc1` (centres unmarked), the “hERG current change (%, negative = inhibition) at 10uM” value worked out at 18.4%.

Regarding `COc1cc(CNc2ccc3[nH]c(=O)[nH]c3c2)ccc1OCc1ccccc1`, the “hERG current change (%, negative = inhibition) at 10uM” value is given as 9.59%.

Consider `Oc1ccc(-c2nnc(Nc3ccccc3)c3ccccc23)cc1`, for which the “hERG current change (%, negative = inhibition) at 10uM” value is given as -58.9%.

As to `COc1ccc2nc(Nc3nc4ccc(NC(C)=O)cc4s3)sc2c1`, the “hERG current change (%, negative = inhibition) at 10uM” value was found to be 12.3%.

Regarding `Cc1ccc(C(=O)O/N=C(\N)c2ccccn2)cc1C`, the “hERG current change (%, negative = inhibition) at 10uM” value is given as -1.05%.

As for `CCOc1cc(NC(=S)Nc2ccccc2)c(OCC)cc1NC(=O)c1ccccc1`, the “hERG current change (%, negative = inhibition) at 10uM” value was -0.843%.

Take `O=S(=O)(NCc1csc(-c2ccccc2)n1)c1ccc(Cl)s1`: the “hERG current change (%, negative = inhibition) at 10uM” value is 5.47%.

Take `Cc1ccc(-n2cc(CN3CCNC(=O)CC3)c(-c3cccc(C)c3)n2)cc1`: the “hERG current change (%, negative = inhibition) at 10uM” value is recorded as -0.817%.

For the molecule `CC(=O)Cc1ccc(OC(C)C)cc1`, the “hERG current change (%, negative = inhibition) at 10uM” value came out at 2.76%.

With `COc1ccc(C2C(C(C)=O)=C(O)C(=O)N2c2nccs2)cc1` (centres unmarked), the “hERG current change (%, negative = inhibition) at 10uM” value is -2.27%.

On to `CCCCCCCCCn1cc(C(C)=O)c(=O)[nH]c1=O`, for which the “hERG current change (%, negative = inhibition) at 10uM” value came to 4.68%.

For the molecule `Cc1ccc(C(C)C)c(OCC(=O)Nc2ccccc2N2CCN(C)CC2)c1`, the “hERG current change (%, negative = inhibition) at 10uM” value is given as -40.5%.

On to `COc1ccccc1CNC(=O)C(C)Oc1ccccc1` (centres unmarked), for which the “hERG current change (%, negative = inhibition) at 10uM” value is given as -29.1%.

In the case of `CC1(C)Cc2c(C#N)c(N3CCN(C(=O)c4ccco4)CC3)nc(-c3ccco3)c2CS1`, the “hERG current change (%, negative = inhibition) at 10uM” value was -21.6%.

As for `COCCNC(=O)CCCn1c(=O)c2ccccc2n(Cc2ccccc2C#N)c1=O`, the “hERG current change (%, negative = inhibition) at 10uM” value amounted to 8.92%.

Regarding `CC(Oc1ccccc1)C(=O)N1CCc2ccccc2C1` (centres unmarked), the “hERG current change (%, negative = inhibition) at 10uM” value worked out at 6.25%.

On to `O=C(Nc1ccc(F)cc1F)c1sccc1SCc1cccc(C(F)(F)F)c1`, for which the “hERG current change (%, negative = inhibition) at 10uM” value is on record as -4.52%.

For the molecule `CCN(CC(=O)Nc1c(F)cccc1F)C(=O)c1cccnc1SC`, the “hERG current change (%, negative = inhibition) at 10uM” value is reported as 6.33%.

In the case of `O=S(=O)(NCc1ccccc1F)NCc1ccccc1F`, the “hERG current change (%, negative = inhibition) at 10uM” value amounted to 12.4%.

With `Cc1cc(=O)[nH]c(N/N=C/c2ccccc2C(F)(F)F)n1`, the “hERG current change (%, negative = inhibition) at 10uM” value was determined as 22.8%.

Turning to `CCOc1ccc(N2C(=O)CC(N3CCN(c4ccc([N+](=O)[O-])cc4)CC3)C2=O)cc1` (centres unmarked), the “hERG current change (%, negative = inhibition) at 10uM” value is given as -28.3%.

Consider `Cc1ccccc1C(=O)Nn1cnc2ccccc2c1=O`, for which the “hERG current change (%, negative = inhibition) at 10uM” value amounted to 28.6%.

`Cc1onc(-c2ccccc2)c1C(=O)NCC1CCCO1` (centres unmarked): the “hERG current change (%, negative = inhibition) at 10uM” value is 17.5%.

Turning to `Cc1c(NC(=O)CSC2=C(C#N)C(c3ccccc3F)CC(=O)N2)c(=O)n(-c2ccccc2)n1C` (centres unmarked), the “hERG current change (%, negative = inhibition) at 10uM” value was determined as 8.04%.

Take `CC(C(=O)NC(=O)NC1CCCCC1)N(C)CC(=O)Nc1ccc(F)c(F)c1F` (centres unmarked): the “hERG current change (%, negative = inhibition) at 10uM” value is -6.11%.
